Measurements from the supplement of paper PMC10126150.
Values marked as one replicate rest on one cluster of the flow cell; about a third of the high ones do not repeat.

Tested on: ATP
Assay: switch fluorescence ratio, 500 uM ATP over buffer (Cy3 cluster intensity, sum of 5 cycles each) (fold (ratio)); higher = stronger signal-on switching upon ATP binding; sequences stand for … in TCGTCGGCAGCGTCAGATGTGTATAAGAGACAGTTTTTTTTTTTTTTTTTTTTTTTTT…TC
Settings: aptamer strand: ATP DNA aptamer (quencher-CACCTGGGGGAGTATTGCGGAGGAAGG + anchor), 100 nM annealed; ATP concentration: 500 uM; one replicate
Outline: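 The quencher-labelled ATP aptamer, at 100 nM, was annealed to Cy3-labelled switching-strand clusters on a modified Illumina MiSeq flow-cell. The clusters were imaged in selection buffer, then after 15 min with 500 uM ATP at 22 °C, and this buffer/ATP cycle ran five times with NaOH stripping and re-annealing between runs. Per-cluster fluorescence ratios, summed target-cycle over summed buffer-cycle Cy3 intensity, were averaged per switch-domain sequence. Clusters outside 100-1000 RFU were excluded.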
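Note: ATP exposure 15 min at 22 °C before imaging.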

Row | Sequence | switch fluorescence ratio
1 | ACTCAAGAAC | 1.86
2 | GGAACATTGG | 0.998
3 | AGAGTACATT | 1.03
4 | TTGTCTACCA | 1.02
5 | ACAGGGCGG | 1.02
6 | CCTGTGAGGA | 1.01
7 | TCCGATACGG | 1.01
8 | AACTGAATT | 0.997
9 | TGCAAGCAC | 2.18
10 | ATCATGGGAA | 1.06
11 | TCCTCGGGAT | 1.61
12 | CGATAGAGAC | 1.07
13 | GGATGTTGGG | 0.997
14 | TATTGAATCG | 1.03
15 | GGTTGCAAAG | 0.963
16 | CACTGGACAA | 1.18
17 | CATGCGAGAG | 1.05
18 | TCGCGTACAT | 2.79
19 | CTCACTTATT | 1.31
20 | TAGGATATGC | 0.998
21 | TTTTCAGGTT | 1.18
22 | ACCCGGGATA | 1.09
23 | CTACCCTTCA | 1.61
24 | GACGGCTTCA | 0.947
25 | CTCTAGTCTG | 0.998
26 | ATTAAGGGTC | 0.891

Row | Sequence | switch fluorescence ratio
27 | GCTTTAGTCT | 1.04
28 | GTCTCAGCAC | 1.26
29 | GTTGGTTAGT | 0.999
30 | CCTGGCAAAG | 2.06
31 | AAACCCTAGG | 1.06
32 | GTGAAAGAGA | 1.03
33 | GGTCAGTAGG | 0.995
34 | GGTGGATTAC | 1.04
35 | CTTATCTGGT | 1.02
36 | CACATGATTA | 1.03
37 | GGAGTATGTC | 0.905
38 | CTATATTACG | 1.01
39 | ACGCCATGGC | 1.01
40 | CCAGAGCAGG | 1.15
41 | ATCTCAACTT | 1
42 | ACTTTACGT | 1.35
43 | CTTGGGG | 1.02
44 | GTTCGAAGA | 1.11
45 | CAGTCGTCTA | 1.01
46 | ATAGCGTCGT | 1.02
47 | AGGGAACGTC | 0.946
48 | TAGAACTAGC | 0.987
49 | CATGATTGTT | 1.01
50 | TAGGGATACT | 1.01
51 | TGAGCGCGGC | 0.954
52 | GAAATATAGC | 0.995

Row | Sequence | switch fluorescence ratio
53 | ATGGGAATGG | 0.993
54 | ATATAATGGG | 0.977
55 | TTTCGCACCT | 1.03
56 | AATGGAGTAG | 1.03
57 | GGTATAGCGT | 0.995
58 | CCGCACCCGT | 3.7
59 | CCTTTGAATT | 1.13
60 | TAGTGTACCC | 1.07
61 | GAATACCGTC | 1.04
62 | GCTAGACCGC | 1.07
63 | CTAAGTGAAT | 0.986
64 | CATCGTAT | 1.03
65 | CTCATCAGAT | 1.01
66 | CTCAATAGGT | 1.02
67 | AACCTCCTTA | 1.12
68 | GGTGTAGCGT | 1.1
69 | TCGACGTAGC | 1.17
70 | CGCACTAAGA | 1.06
71 | AGCGAGGTAG | 0.962
72 | CTAACACGGG | 1.02
73 | GAACCTTTTT | 1.01
74 | CCAAGTATGT | 1.01
75 | TACCCAGAAT | 1.03
76 | CTGTGAGCGA | 1.21
77 | TATCGTTGCG | 0.97
78 | TCTCTGAC | 1.15

Row | Sequence | switch fluorescence ratio
79 | CAGTTAAACT | 1.07
80 | AACAGAGGG | 0.984
81 | GGGTAAAAGA | 1.05
82 | GGAGTAGCAA | 1.53
83 | GACCCGAGGA | 1.03
84 | ATCCAGCACG | 1.06
85 | CTGTAAAGTA | 0.998
86 | TGGGGCCGG | 1.01
87 | TTTAGAGGCA | 1.02
88 | GTTTCTTGGC | 0.967
89 | ACTTGATCGG | 0.992
90 | TACGTTCTGG | 1.03
91 | CTTTCCCGC | 1.94
92 | GAGTCGGCTA | 0.978
93 | GCTTGTGAAT | 1.02
94 | TAGAATCGAC | 0.994
95 | CCACATCTGC | 1.07
96 | GGGGCGACAC | 0.962
97 | TTTGGCCTGG | 1
98 | ATTGCTAGTG | 0.965
99 | GATCCCTGGG | 1.08
100 | TAGAGGGAAC | 0.928
101 | CTAGGGAAGT | 1
102 | TTATTCTACT | 1.02
103 | TCAGCCTGGC | 1.08
104 | ATATGACCCA | 0.978

Row | Sequence | switch fluorescence ratio
105 | ATCAATCTGA | 0.949
106 | ATTAGTATGG | 0.958
107 | TCTAGATCGG | 1.02
108 | CTCTACGTTC | 1.13
109 | GTGGTAGCCT | 1.03
110 | CCAGCCAGCC | 1.24
111 | GCCTATGTTG | 1
112 | AACTCATGAT | 0.967
113 | CGGTGTGATA | 1.01
114 | GCGGCCCTCT | 1.03
115 | TTGGGCTAAG | 0.96
116 | TCTCGCTCTC | 1.62
117 | GCACAGCCGT | 1.03
118 | TGAGTCTAGA | 1.01
119 | CCTTCGTGGT | 3.87
120 | GGCTAAGTGG | 1.02
121 | CTCGTAACGA | 1.05
122 | CTTCAAGTGA | 1.01
123 | CTCCTAAGAA | 1.04
124 | GGTCAATAAT | 1
125 | TGGAAAGGCA | 0.956
126 | GCCACGACCA | 1.18
127 | CCTAAAAGGT | 1.04
128 | GGGGCCTCGA | 0.96
129 | CGTCAAATTA | 1.03
130 | TCACTTGCAG | 1.03

Row | Sequence | switch fluorescence ratio
131 | TTCTAGTTTG | 1
132 | CAAACGCCTC | 1.84
133 | TGGTCTAAGG | 0.991
134 | CGTACGGCAT | 1.07
135 | TAAGGGGAG | 0.976
136 | GCCGGTTATG | 0.999
137 | CGGAATTCCT | 0.987
138 | TTGCACGCTC | 1.07
139 | ATCGGAGGCC | 1.06
140 | GGGATCATTC | 0.994
141 | GCCTCGGGTT | 0.997
142 | TTGTACATT | 1.04
143 | ATTTATAAGG | 0.996
144 | TACCTCCAGT | 1.07
145 | AGACAGATCT | 0.981
146 | CGATTGTGAT | 1.02
147 | CGTGACTTC | 1.04
148 | ATATCATTTA | 1.03
149 | GGGTGAGCCG | 1.05
150 | AGTTATCGAG | 0.966
151 | GTGACCCCGC | 1.19
152 | GCTAAATAGT | 1.01
153 | GTCCTAGAAT | 0.968
154 | CATAGGATTA | 0.979
155 | GCTTTGGTGG | 0.991
156 | TGCAATTTT | 1.1

Row | Sequence | switch fluorescence ratio
157 | AAAACCTGTT | 1.09
158 | CTGGTGTTGT | 1.04
159 | GGGGTTAATC | 0.986
160 | ACATACTGG | 1.46
161 | GTCATCGTTG | 1.01
162 | ATACTGGGCA | 1.07
163 | AATGCAGACT | 1.03
164 | AATAAGGCAG | 0.984
165 | TTGCGGCAGT | 0.986
166 | TGCTAGATTT | 1.01
167 | CGGTACTGTA | 1.09
168 | TCGGGTGTG | 1.01
169 | GAGGAGTGAT | 1
170 | GTGTTGGGAT | 0.964
171 | GGAGAGCCCG | 0.98
172 | GCTGCGCCGC | 1.04
173 | AGAGGAAATT | 0.98
174 | CACCCTAAAG | 1.06
175 | AGAACGCAC | 1.9
176 | CTCCGAGGTA | 2.63
177 | GAGCGCCTGG | 1.05
178 | CGCCGTGGCA | 1.03
179 | GACTGGTAGT | 0.988
180 | GTAGAAAGGT | 0.971
181 | CGACCCAGAT | 1.09
182 | CGACAAGGGG | 1.05

Row | Sequence | switch fluorescence ratio
183 | TTCACGGTAG | 1.01
184 | GGGGCTGTCG | 1.02
185 | TAAACGCGGT | 1.05
186 | AGCGGATATT | 1.1
187 | GTGTGGTTAT | 1.02
188 | CTGTTGACGG | 0.951
189 | TTTGGCCTTG | 1.04
190 | CTACTGCTCG | 1.02
191 | CATAGCGTGC | 1.11
192 | AATACTCAGC | 1.08
193 | ATTGCGTCAA | 0.959
194 | CCTGACTGGG | 1.05
195 | TGGGGTGAAG | 0.99
196 | ATGCGGACG | 1.08
197 | TCCGTAGTTT | 2.36
198 | TTGTACGT | 0.996
199 | TGTTAAGTAT | 0.991
200 | CGGAACGGCA | 1.01
201 | AATGCACCG | 1.08
